Hit rate of the full screen: of about 280,000 compounds, about 1,100 (0.39%) were called active. Inconclusive means that the source gave no clear call. Such entries were picked first, then a sample of the others. The call rests on the fitted dose curve; in most records, active means well fitted inhibition curve with a large enough effect; inconclusive means small, poorly fitted or top-dose-only effect, or effect the other way; inactive means flat fitted curve, though single readings scatter. Potencies of inconclusive entries are left out as doubtful fits.
The compounds below were run against Microtubule-associated protein tau (Homo sapiens) (UniProt P10636) (assay: qHTS for Inhibitors of Tau Fibril Formation, Fluorescence Polarization). Details: K18 P301L tau heparin fibrillization, Alexa594 FP, 6 h; series mostly up to 57.7 µM.
Chain of UniProt P10636 (P10636 whole entry, looked up): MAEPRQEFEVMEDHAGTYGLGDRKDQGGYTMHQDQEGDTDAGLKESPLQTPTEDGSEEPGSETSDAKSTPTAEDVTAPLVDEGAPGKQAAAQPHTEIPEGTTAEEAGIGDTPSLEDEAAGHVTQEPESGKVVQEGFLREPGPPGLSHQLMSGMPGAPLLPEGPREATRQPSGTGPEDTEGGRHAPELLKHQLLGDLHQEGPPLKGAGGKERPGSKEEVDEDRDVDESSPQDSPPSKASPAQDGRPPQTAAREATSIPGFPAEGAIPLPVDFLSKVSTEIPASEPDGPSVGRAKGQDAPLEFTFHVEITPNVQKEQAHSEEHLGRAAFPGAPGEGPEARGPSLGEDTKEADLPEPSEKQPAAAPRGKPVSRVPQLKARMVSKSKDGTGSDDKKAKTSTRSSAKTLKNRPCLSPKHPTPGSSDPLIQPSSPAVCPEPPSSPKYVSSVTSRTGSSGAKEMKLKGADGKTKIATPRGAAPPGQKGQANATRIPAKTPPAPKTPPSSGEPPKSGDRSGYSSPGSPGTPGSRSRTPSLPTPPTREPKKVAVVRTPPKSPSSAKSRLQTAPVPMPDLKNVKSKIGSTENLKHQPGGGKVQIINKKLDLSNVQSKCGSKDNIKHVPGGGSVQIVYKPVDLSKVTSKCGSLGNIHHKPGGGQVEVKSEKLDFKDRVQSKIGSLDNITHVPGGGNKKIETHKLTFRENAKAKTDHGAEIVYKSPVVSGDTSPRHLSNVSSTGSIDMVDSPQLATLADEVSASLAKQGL
Method in brief: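 K18 P301L tau (15 uM unlabeled/0.24 uM Alexa 594-labeled, final) + compound + heparin 20 uM final; 100 mM NaOAc pH 7; 6 hr 37 C; ThT 30 uM final added, 1 hr RT; FP ex 555/em 632 nm.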
With `Cc1ccc2c(c1)-c1c(cnn1CC(=O)N1CCN(c3cccc(C(F)(F)F)c3)CC1)CO2` the Potency was “inactive”. With `O=C(Nc1ccc(N2CCN(C(=O)c3ccccc3)CC2)cc1)c1cc2ccccc2o1` the Potency was inconclusive [activator, single point]. `O=C(c1ccc(C#Cc2ccccc2)o1)N1CCN(c2ccccn2)CC1` was tested, and the Potency was inconclusive [inhibitor, single point]. With `Cc1cc2ccccc2n1CCNC(=O)Cc1cccc2ccccc12` the Potency was inconclusive [inhibitor, single point]. For `CCCn1c(O)c(CN2CCCC(C)C2)c(C)c(C#N)c1=O` (stereo unspecified), the Potency was inconclusive [inhibitor, partial curve]. With `CCOC(=O)c1ccc(NC(=O)CC2Nc3cc(C)c(C)cc3NC2=O)cc1` (stereo unspecified) the Potency was “inactive”. `CC1=Nn2c(nnc2-c2n[nH]c3c2CCC3)SC1` was tested, and the Potency was “inactive”. In the case of `S=C(NCCC(c1ccccc1)c1ccccc1)Nc1cccc(Cl)c1`, the Potency is reported as active: 14.1 µM. With `CCOc1ccc2nc(SCC#N)c(C#N)cc2c1` the Potency was inconclusive [activator, full curve, poor fit]. `COc1ccc(S(=O)(=O)N(C)c2ccc(C(=O)NC3CCCC3)cc2)cc1` was tested, and the Potency was inconclusive [inhibitor, single point]. `O=C(Nc1ccc(F)cc1)Nc1nnc(SCC(=O)N2CCCCC2)s1` was tested, and the Potency was inconclusive [inhibitor, partial curve]. For `N#CC1(C#N)CC(C=O)=C(N)C1(C#N)CC(=O)c1ccc(F)cc1` (stereo unspecified), the Potency was inconclusive [inhibitor, partial curve]. `N#CCCn1nc(-c2ccccc2)cc1Nc1ccccc1NC(=O)c1cccs1` was tested, and the Potency was inconclusive [inhibitor, single point]. `Cc1cccc(CNC(=O)CN2CC(C)Sc3ccccc32)c1` (stereo unspecified) was tested, and the Potency was “inactive”. With `C=CCn1c(-c2ccco2)n[nH]c1=S` the Potency was “inactive”. With `COc1cccc(NC2=CC(c3ccc(C(C)C)cc3)N(c3cccc(OC)c3)C2=O)c1` (stereo unspecified) the Potency was inconclusive [inhibitor, single point]. For `N#CCCN1CCN(S(=O)(=O)c2ccc(S(=O)(=O)N3CCCCCC3)cc2)CC1`, the Potency was inconclusive [inhibitor, single point]. In the case of `Cc1cc(-c2n[nH]c(=S)n2/N=C/C(Cl)=C/c2ccccc2)n[nH]1`, the Potency is reported as “inactive”. `CCCCCCOc1ccc(NC(=O)CC2C(=O)N(CC)C(=S)N2Cc2ccco2)cc1` (stereo unspecified) was tested, and the Potency was inconclusive [inhibitor, partial curve]. For `CCC(C(=O)Nc1ccc(F)cc1F)n1nc(-c2ccccc2)c2c(c1=O)CCCC2` (stereo unspecified), the Potency was “inactive”. For `O=C(NC1CCCCC1)C(c1cccnc1)N(C(=O)c1ccc(Cl)nc1)C1CCCCC1` (stereo unspecified), the Potency was “inactive”. `O=C(c1ccc(F)cc1)N1CCN(CCc2ccncc2)CC1` was tested, and the Potency was “inactive”. `CC(=O)Nc1cccc(N=NN2CCOCC2)c1` was tested, and the Potency was inconclusive [inhibitor, single point]. `O=C(NCc1cccc(F)c1)C1CCN(c2nn3cc(-c4ccc(F)cc4)nc3s2)CC1` was tested, and the Potency was “inactive”. In the case of `O=c1[nH]c(Cc2ccccc2Cl)nc2ccccc12`, the Potency is reported as inconclusive [inhibitor, single point]. With `COCCCNC(=O)C1CCN(C(=O)c2ccc(-n3ccc4ccccc43)s2)CC1` the Potency was “inactive”. In the case of `O=C(COc1ccc2ccccc2c1Br)NNC(=O)Nc1ccccc1`, the Potency is reported as inconclusive [inhibitor, single point]. With `O=C(N/N=C/C=C\c1ccc([N+](=O)[O-])cc1)c1cccnc1` the Potency was “inactive”. With `O=C(Nc1ccc(O)c(-c2nc3ccccc3o2)c1)c1ccc(-c2cccc(Cl)c2)o1` the Potency was inconclusive [inhibitor, single point]. For `Cc1cc(C)c(NC(=S)NC(NC(=O)c2ccccc2)C(Cl)(Cl)Cl)c(C)c1` (stereo unspecified), the Potency was inconclusive [inhibitor, single point]. In the case of `CC(=O)OCC1=C(C(=O)O)N2C(=O)C(NC(=O)CCn3nc(C(F)(F)F)c(Br)c3C3CC3)C2SC1` (stereo unspecified), the Potency is reported as inconclusive [inhibitor, single point]. For `Cc1ccc2nc(-c3ccc(NC(=O)CN(c4ccccc4C)S(C)(=O)=O)cc3)sc2c1`, the Potency was inconclusive [inhibitor, full curve]. `CCOC(=O)N1CCN(S(=O)(=O)c2ccc(C(=O)Nc3nc4ccc(F)cc4s3)cc2)CC1` was tested, and the Potency was inconclusive [inhibitor, single point]. With `Cc1ccc(C)c(N2CCN(S(=O)(=O)c3ccc(F)c(C(=O)Nc4ccc(Cl)cc4Cl)c3)CC2)c1` the Potency was inconclusive [inhibitor, partial curve]. For `O=C(Nc1ccccc1)N1CCc2scc[n+]2-c2ccccc21`, the Potency was inconclusive [inhibitor, single point]. In the case of `CCOc1ccc(/C=N/NC(=O)c2ccccc2NC(=O)c2ccc(OC)cc2)cc1`, the Potency is reported as inconclusive [inhibitor, partial curve]. With `COc1ccc(-n2nc(C(=O)NCC(=O)NCc3ccccc3OC)c3ccccc3c2=O)c(OC)c1` the Potency was “inactive”. For `COc1ccccc1NC(=O)c1sc2nc(-c3cc4ccccc4oc3=O)[nH]c(=O)c2c1C`, the Potency was “inactive”. `O=C(CSc1nnc(-c2ccccn2)n1Cc1ccco1)c1ccccc1` was tested, and the Potency was “inactive”. With `COc1cc(C(=O)Nc2c(C)cc(C)cc2C)c([N+](=O)[O-])cc1OC` the Potency was “inactive”. In the case of `CN(C)c1ccc(N=C/C=C2/N(C)c3ccccc3C2(C)C)cc1`, the Potency is reported as inconclusive [inhibitor, single point]. `COc1ccc(N(CC(O)Cn2cnc3ccccc32)S(=O)(=O)c2ccc(C)cc2)cc1` (stereo unspecified) was tested, and the Potency was “inactive”. With `Cc1cc2nnn(-c3nnc(-c4ccccc4)c4ccccc34)c2cc1C` the Potency was “inactive”. `CCOCCCNC(=O)c1c[nH]c2ccc(OCC)cc2c1=O` was tested, and the Potency was “inactive”. For `CCOC(=O)C1=C(N)Oc2cc(O)ccc2C1c1ccc([N+](=O)[O-])cc1` (stereo unspecified), the Potency was inconclusive [inhibitor, single point]. For `CCOC(=O)c1sc(=S)sc1SCc1cccc(C(F)(F)F)c1`, the Potency was “inactive”.

From PubChem BioAssay AID1468 (National Center for Advancing Translational Sciences (NCATS), 2008)
Further: nearly all actives have a fitted effect of over 55% in size.
Potency means the concentration at half of the fitted maximal effect; tags describe the fitted curve by direction and shape.
